According to the supplement of paper PMC3334620:
The full ranking holds about 33,000 sequences; the median of “E-score (-0.5 to 0.5)” is about -0.036, and the highest 2% start at about 0.37. This is one part of the list.

target: T1, Yer064c (UniProt P40041); assay: PBM E-score (8-mer binding enrichment) (E-score (-0.5 to 0.5)); higher = stronger / more preferred TF binding; most listed sequences are background and not binding sites; conditions: protein concentration: 200 nM; construct: GST-full length
T1 sequence: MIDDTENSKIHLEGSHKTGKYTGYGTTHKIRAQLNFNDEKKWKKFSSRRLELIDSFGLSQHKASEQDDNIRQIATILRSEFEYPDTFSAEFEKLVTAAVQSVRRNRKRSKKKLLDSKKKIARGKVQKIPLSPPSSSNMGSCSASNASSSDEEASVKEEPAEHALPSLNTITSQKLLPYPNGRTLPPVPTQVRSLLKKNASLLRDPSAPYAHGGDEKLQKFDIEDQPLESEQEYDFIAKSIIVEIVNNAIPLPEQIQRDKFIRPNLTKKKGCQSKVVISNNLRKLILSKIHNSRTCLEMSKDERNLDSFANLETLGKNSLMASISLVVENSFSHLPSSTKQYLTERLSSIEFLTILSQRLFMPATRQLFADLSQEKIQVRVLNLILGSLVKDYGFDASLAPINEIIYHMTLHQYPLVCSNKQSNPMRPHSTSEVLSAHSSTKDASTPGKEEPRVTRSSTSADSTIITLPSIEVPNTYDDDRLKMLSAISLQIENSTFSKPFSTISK
Outline: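 GST-tagged yeast TFs (full-length or DNA-binding domain) were made by PURExpress in vitro transcription/translation and applied at about 100-200 nM to universal all-10-mer Agilent arrays. The arrays were made double-stranded by primer extension, on fresh or once-stripped slides. Bound protein was detected with fluorescent anti-GST, and scans were normalised with masliner. Each ungapped eight-base word, pooled with its reverse complement, received an E-score (modified Wilcoxon-Mann-Whitney statistic) from the Universal PBM Analysis Suite.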

| Sequence | PBM E-score |
| --- | --- |
| GCCACAAC | -0.125 |
| AGTACCGA | -0.0648 |
| AGAGCGCC | -0.124 |
| GATTGACC | 0.133 |
| ACGAGCCA | 0.195 |
| AAGCCCGC | -0.329 |
| AGCCATCG | 0.229 |
| GACTGATC | 0.314 |
| AGTCTAAT | 0.156 |
| AGGGTCTG | -0.181 |
| GATTGACA | 0.261 |
| CCAAAGAA | -0.0797 |
| AGACATTC | 0.118 |
| CCTGTGCA | -0.146 |
| CAGACCAG | -0.0215 |
| ATAACTTA | 0.15 |
| GAGTTGTA | 0.0614 |
| CCCCGCCG | -0.246 |
| CGACTGAG | 0.241 |
| AGTGGAAT | 0.00193 |
| CATTAACA | 0.106 |
| CATCAGTA | 0.0609 |

| Sequence | PBM E-score |
| --- | --- |
| AGCTGAAT | -0.00359 |
| CCTAACGC | -0.104 |
| AACCGAGG | -0.0732 |
| CGTTCCTC | -0.262 |
| CACTGTTA | -0.175 |
| CATTGTAA | 0.0341 |
| ACCGCTGC | -0.321 |
| AACCGCAG | -0.0549 |
| CATCATGA | 0.294 |
| ACGACTCC | 0.423 |
| ATAACCTG | -0.0996 |
| ATGATTGA | 0.423 |
| ACAGCTGC | 0.0661 |
| ACCACACA | -0.051 |
| CTGACCTA | 0.226 |
| GGAGGGCC | -0.322 |
| ATATGGTC | -0.091 |
| CCACGCAC | -0.162 |
| CTCGCTTA | 0.0025 |
| ATCTGCCA | -0.162 |
| AAATTGTT | 0.00195 |
| TGACAACA | -0.0584 |

| Sequence | PBM E-score |
| --- | --- |
| ACTAGGCC | -0.0909 |
| AGAGGTGG | -0.273 |
| AGTAAAGG | 0.0771 |
| GAGCAGAC | -0.145 |
| CACGCGAG | 0.17 |
| CACATGCC | 0.0703 |
| CTTGGGGA | -0.0821 |
| ACTCGCAT | 0.213 |
| GTTAGATA | 0.0205 |
| CCGTAAGG | -0.286 |
| ACTGAATG | 0.011 |
| CGCCTACG | -0.0445 |
| GGAACCTA | -0.242 |
| ATGAACGA | -0.138 |
| ATTAGGCG | 0.00056 |
| AATAATCT | 0.201 |
| TGACCAAA | 0.027 |
| CCCTAGGG | 0.0143 |
| ATGACATC | -0.0791 |
| CACCTCAA | 0.0525 |
| AAAGACCA | -0.029 |
| CTTGCCAA | 0.0295 |

| Sequence | PBM E-score |
| --- | --- |
| TTCAGGAA | 0.0545 |
| CAGCTCCC | -0.0873 |
| GGTGACGA | -0.0961 |
| GAACCTCC | -0.247 |
| ATTAAACA | 0.23 |
| AATATCTA | -0.0454 |
| CATCGATA | 0.0372 |
| ACACCCCC | -0.0828 |
| CGCCGACG | 0.0193 |
| CAGCTTCC | -0.237 |
| GGCGCCAC | -0.167 |
| GTGGGAAC | -0.183 |
| CATCGGGC | -0.256 |
| AAAGTAAG | 0.0165 |
| TGGATACA | 0.042 |
| CTAAACAC | 0.107 |
| GCCAGCAA | -0.238 |
| CCCGTTGA | 0.0939 |
| GGCGGACC | -0.297 |
| ACGACTAA | 0.438 |
